# The whole screen tested about 310,000 compounds, of which about 2,200 (0.71%) showed an effect of 50% or more. Effects have a minus sign here. Some of the results follow.
# Target: human ether-à-go-go-related gene (hERG) potassium channel (human, UniProt Q12809)
# Assay: primary screen, population patch clamp on CHO cells stably expressing hERG
# Chain of human ether-à-go-go-related gene (hERG) potassium channel (Q12809 whole entry, looked up): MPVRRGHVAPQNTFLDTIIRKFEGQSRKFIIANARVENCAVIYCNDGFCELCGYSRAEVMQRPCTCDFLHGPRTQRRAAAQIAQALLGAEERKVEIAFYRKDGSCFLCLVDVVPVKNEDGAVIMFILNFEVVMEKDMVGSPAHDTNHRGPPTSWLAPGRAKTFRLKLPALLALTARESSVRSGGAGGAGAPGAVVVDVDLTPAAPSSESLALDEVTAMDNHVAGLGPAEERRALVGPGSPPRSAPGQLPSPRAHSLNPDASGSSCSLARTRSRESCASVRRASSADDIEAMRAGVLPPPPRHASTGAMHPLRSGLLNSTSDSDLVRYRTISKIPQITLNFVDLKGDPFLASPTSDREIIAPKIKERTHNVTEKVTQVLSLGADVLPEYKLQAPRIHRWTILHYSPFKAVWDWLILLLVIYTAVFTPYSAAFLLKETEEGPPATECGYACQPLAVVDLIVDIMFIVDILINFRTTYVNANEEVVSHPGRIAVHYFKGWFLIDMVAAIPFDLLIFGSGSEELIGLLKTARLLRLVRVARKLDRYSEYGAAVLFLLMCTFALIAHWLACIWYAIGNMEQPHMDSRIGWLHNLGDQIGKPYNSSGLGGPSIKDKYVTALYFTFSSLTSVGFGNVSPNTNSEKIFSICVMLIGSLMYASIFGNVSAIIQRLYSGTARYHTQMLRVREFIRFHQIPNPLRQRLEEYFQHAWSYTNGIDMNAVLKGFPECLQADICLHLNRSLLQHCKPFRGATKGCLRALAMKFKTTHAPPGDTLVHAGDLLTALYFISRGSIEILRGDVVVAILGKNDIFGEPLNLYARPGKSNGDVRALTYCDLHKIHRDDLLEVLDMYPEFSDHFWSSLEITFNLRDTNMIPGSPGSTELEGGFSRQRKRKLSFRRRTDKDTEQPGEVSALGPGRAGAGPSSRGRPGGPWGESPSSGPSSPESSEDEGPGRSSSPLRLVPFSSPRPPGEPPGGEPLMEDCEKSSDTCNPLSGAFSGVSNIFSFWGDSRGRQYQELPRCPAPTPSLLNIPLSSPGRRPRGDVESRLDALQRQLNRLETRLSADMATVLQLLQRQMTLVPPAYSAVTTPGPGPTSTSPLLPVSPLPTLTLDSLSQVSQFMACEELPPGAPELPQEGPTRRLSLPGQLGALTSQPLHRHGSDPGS
row,SMILES,"hERG current change (%, negative = inhibition) at 1uM [%]"
1,CC(=NCc1ccco1)c1c(O)n(-c2ccccc2)c(=O)[nH]c1=O,4.42
2,CCN(CC(=O)NCCc1ccc(F)cc1)Cc1nc2ccccc2c(=O)[nH]1,1.66
3,Cc1ccc(C)c(NC(=O)CN(C)C(=O)C2CCCC2)c1,14.6
4,Cc1cc(NC(=O)CSc2nc3c(C)cccc3cc2C)no1,19.6
5,CSc1ncccc1C(=O)OCC(=O)NC(C)(C)C,9.9
6,Cn1nnnc1Sc1ncnc2scc(-c3cc4ccccc4o3)c12,9.36
7,CCOc1ccc(CCNC(=O)COC(=O)CCS(=O)(=O)c2ccc(C)cc2)cc1OCC,28.7
8,Cc1cccc(-n2cc(CN(C)Cc3nccn3C)c(-c3cccc(F)c3)n2)c1,3.33
9,S=C1COC(c2ccccc2)N1c1ccccc1 (stereo not drawn),3.4
10,Cc1cc(C)c(NS(=O)(=O)c2ccc3c(c2)n(C)c(=O)n3C)c(C)c1,8.27
11,Cc1cccn2c(=O)c3cc(C(=O)NCCN4CCOCC4)n(C)c3nc12,9.82
12,CN(C)c1nc(OCCNC(=O)COc2ccc(Cl)cc2Cl)nc(N(C)C)n1,0.0232
13,Cc1cccc(N2CCN(C3=NC(=O)/C(=C\c4cn[nH]c4-c4ccccc4)S3)CC2)c1,0.304
14,CCC(=O)c1ccc(OCC(O)CN2C(=O)NC(C)(C)C2=O)cc1 (stereo not drawn),18.2
15,O=C(NCCCN1CCOCC1)c1cccnc1SCc1ccccc1Cl,13.1
16,Cc1cccc(C)c1NC(=O)N1CCC(n2c(=O)[nH]c3ccccc32)CC1,15.4
17,COC(=O)c1ccc(C(=O)NC(=S)Nc2nc3c(s2)CCCC3)cc1,10.8
18,CCOC(=O)C1=C(O)c2ccccc2C(=O)/C1=C\c1ccc(C)cc1,10.2
19,Cc1nc(SCC(=O)N(CC(C)C)C2CCS(=O)(=O)C2)c2ccccc2n1 (stereo not drawn),8.07
20,Cn1c(=O)c2c(nc(N3CCCCCC3)n2CC(O)COc2ccc(Cl)cc2)n(C)c1=O (stereo not drawn),6.1
21,Cc1cccc(C(=O)Nc2ccc(Cl)cc2C(=O)c2ccccc2)c1,5.99
22,CC(C)Cn1cc(C(=O)NCc2cccs2)c2c3ccccc3n(C)c2c1=O,4.2

row,SMILES,"hERG current change (%, negative = inhibition) at 1uM [%]"
1,CCCCn1c(SCC(=O)N2CCOCC2)nc2c1c(=O)n(C)c(=O)n2C,6.81
2,COc1ccc(NC(=O)COC(=O)CNS(=O)(=O)c2ccc(C)cc2)c(OC)c1,15.6
3,CN(c1ccc(O)cc1)c1nc(-c2cccnc2)cs1,10.2
4,COCCNC(=O)/C(C#N)=C/c1c(N2CCCCCC2)nc2ccccn2c1=O,8.17
5,CC1(c2ccccc2)NC(=O)N(CC(=O)Nc2cc3c(cc2Br)OCCO3)C1=O (stereo not drawn),0.314
6,CCCCCCC(=O)NNC(=O)c1c(O)c2ccccc2n(CC)c1=O,-11.9
7,COc1cccc(N2CCN(C(=O)c3cc4c(OC)c(OC)c(OC)cc4[nH]3)CC2)c1,7.79
8,COc1cc(C)ccc1OCCCOc1cc(C)ccc1Cl,0.631
9,COn1c(-c2ccc(Cl)cc2)nc2ncccc21,7.93
10,CN(CC(=O)Nc1ccc(N2CCOCC2)cc1)C(=O)c1ccc(O)c(Cl)c1,10.4
11,Clc1ccc(-c2csc(N/N=C/c3cccnc3)n2)c(Cl)c1,-3.48
12,O=C(OCc1nc2ccccc2s1)c1cccs1,8.17
13,O=C(CCCc1nc2ccccc2s1)NCc1ccc(F)cc1,-7.71
14,COc1ccc(N2CCN(C(=O)CN(c3ccccc3)S(C)(=O)=O)CC2)cc1,4.23
15,CCC(Sc1nc2ncccc2[nH]1)C(=O)NC1CCCC1 (stereo not drawn),4.14
16,CCN(CC)c1ccc(NC(=O)CCCCCN2C(=O)c3ccccc3C2=O)cc1,-0.349
17,CC(C)CC(NC(=O)c1ccc(Cl)cc1)C(=O)O (stereo not drawn),9.23
18,COc1ccc(OCCCc2c(C)n[nH]c2C)cc1,-4.19
19,CCCCCOC(=O)c1ccc(NC(=O)c2cccc(NC(=O)c3ccccc3C(=O)O)c2)cc1,15.3
20,COc1cc2c(cc1NC(=O)COC(=O)[C@@H](NC(=O)c1ccccc1F)C(C)C)oc1ccccc12,8.03
21,CC(=O)c1cc2c(cc1NS(=O)(=O)c1ccc(C)cc1)OCCO2,11.2
22,CCOC(=O)c1ccc([N+](=O)[O-])cc1NC(C)=O,6.31

row,SMILES,"hERG current change (%, negative = inhibition) at 1uM [%]"
1,S=C1NC2(CCCCC2)NC12CCCCC2,14
2,COc1ccccc1-n1nnnc1SCC(=O)NC1CC1,8.58
3,COC(=O)C1CN(C(=O)COc2ccc(C)cc2)c2ccccc2O1 (stereo not drawn),6.14
4,CCN(CC)S(=O)(=O)c1cccc(-c2nnc(SC(C)C(=O)NCCC3=CCCCC3)o2)c1 (stereo not drawn),3.83
5,Cc1cccc(CN2CCCC(C(=O)c3cccc(OC(C)C)c3)C2)n1 (stereo not drawn),-4.82
6,CCN(CC)C(=O)CSc1nc(-c2ccccc2)ccc1C#N,-5.5
7,N#CC(c1nc2ccccc2nc1OCCO)S(=O)(=O)c1ccccc1 (stereo not drawn),9.51
8,C=CCn1c(SCC(=O)N(CCC)C2CCS(=O)(=O)C2)nnc1-c1ccccc1OC (stereo not drawn),5.64
9,CCN1C(=O)N[C@@H](CCc2ccccc2)[C@H](C(=O)OC)[C@H]1C,11.1
10,COc1ccc(CC(=O)N2CCN(S(=O)(=O)c3cccs3)CC2)cc1OC,9.13
11,CCn1cc([N+](=O)[O-])c(C(=O)N2CCN(C(=O)c3ccco3)CC2)n1,8.39
12,O=C(CCCn1nnc(-c2cccnc2)n1)c1ccc(F)cc1,2.2
13,CN(C)C1(CNC(=O)c2ccc(Cl)c(S(=O)(=O)NCc3ccco3)c2)CCCCC1,-4.07
14,CCCNC(=O)COC(=O)/C=C/c1ccc(C)o1,12.2
15,COc1ccc(C(=O)Nc2ccc(N3CCCCCC3)cc2)cc1S(=O)(=O)N1CCOCC1,3.39
16,O=C(NC(=S)Nc1ccc(NC(=O)c2ccco2)cc1)c1ccccc1,12.2
17,Cc1ccc(S(=O)(=O)NCC(=O)NCC(=O)N(C)Cc2ccc3ccccc3c2)cc1C,11.1
18,O=C(Nc1cccc2ccccc12)N1CCN(c2ccccc2)CC1,9.57
19,O=C(NCc1ccc(Cl)cc1)C1CCN(S(=O)(=O)c2cccnc2)CC1,-3.39
20,O=C(Cn1nc(Cc2ccncc2)c2ccccc2c1=O)N1CCc2ccccc2C1,-14.3
21,CCCCN(C)CCNC(=O)c1cc2c(=O)[nH]c3ccccc3c2n1C,6.51
22,CCNC(=O)CSc1nc2cc([N+](=O)[O-])ccc2n1-c1cccc(C(F)(F)F)c1,-10.7

row,SMILES,"hERG current change (%, negative = inhibition) at 1uM [%]"
1,Cc1cc(C(F)F)n2nc(C(=O)O)nc2n1,11.7
2,CCOc1ccccc1NC(=O)C1Cc2ccccc2CN1S(C)(=O)=O (stereo not drawn),13.6
3,Cn1cc(Br)c(C(=O)NN2C(=O)C3C(C2=O)C2C=CC3C23CC3)n1 (stereo not drawn),26.5
4,CC(C)O.COc1cc(/C=N/NC(=O)c2ccc(O)cc2)ccc1Oc1ccc([N+](=O)[O-])cn1,6.25
5,Cl.OC(COCCOc1ccc(Br)cc1)CN1CCCCC1 (stereo not drawn),-10.6
6,CC1CCN(Cc2cc(=O)oc3ccc(C(C)C)cc23)CC1.Cl,15.9
7,CCCOc1ccc(N2C(=O)CC(N(CCc3ccc(OC)cc3)C(=O)/C=C/C(=O)O)C2=O)cc1 (stereo not drawn),11.2
8,COc1ccccc1C(=O)NCC(c1ccco1)N1CCc2ccccc21 (stereo not drawn),6.35
9,CCOc1ccc(/C=N/OCC(=O)Nc2ccc3c(c2)OCO3)cc1,-5.35
10,O=c1c2cc([N+](=O)[O-])ccc2nc2n1CCC2,2.27
11,Cc1cnc(C(=O)OCC(=O)NCCc2ccccc2)cn1,-13.3
12,Cc1cc(C)c(NC(=O)CNC(=O)COC(=O)CN2C(=O)NC3(CCCC3)C2=O)c(C)c1,15.2
13,Cc1ccc(OCCCNCCO)c(Br)c1.O=C(O)C(=O)O,5.93
14,O=C(CNC(=O)c1ccc2c(c1)OCO2)N/N=C/c1cc(Br)ccc1O,14.6
15,CC(=O)Nc1ccc(S(=O)(=O)Nc2ccc(=O)n(Cc3ccc(Cl)c(Cl)c3)c2)cc1,-12.7
16,Cc1cc(C=O)c(C)n1-c1ccc(NC2CCCCC2)c([N+](=O)[O-])c1,21.1
17,Cc1cccc2nc3c(nc12)-c1ccccc1C3=O,12.1
18,Cc1ccc(N(Cc2ccccc2)C(=O)c2cc(S(=O)(=O)N3CCOCC3)ccc2N2CCCC2)cc1,8.05
19,CCCOc1ccc(N/C=C/C(=O)c2ccc(OC)c(OC)c2)cc1,3.29
20,CCOC(=O)C1CCN(C(=O)c2ccc(Cl)c(S(=O)(=O)N3CCCC3)c2)CC1,-5.94
21,CC(C)CCCN1C(Nc2ccccc2)=NC[C@@H]1C,-0.21

# Reference: PMC4336329 (PLoS ONE, 2015)
